“And” between values parts separate entries of the source, which are not always exact repeats. Identical values can stand only once. The campaign covered roughly 400,000 compounds. About 2,200 (0.55%) were called active. The inconclusive results got no clear call from the source; some entries with a clear call stand among them for comparison. Calls follow the shape of the dose curve; as a rule, active = well fitted inhibition curve with a large enough effect; inconclusive = small, poorly fitted or top-dose-only effect, or another doubt; inactive = no such curve, though single readings can be large or run the other way. Potencies of inconclusive entries are doubtful fits and often do not repeat.
target: DNA polymerase kappa (Homo sapiens) (UniProt Q9UBT6); test: qHTS for Inhibitors of Polymerase Kappa; conditions: purified Pol kappa, fluorescent DNA synthesis assay, 10 min; series mostly up to 107 µM
Sequence of UniProt Q9UBT6 (Q9UBT6 whole entry, looked up): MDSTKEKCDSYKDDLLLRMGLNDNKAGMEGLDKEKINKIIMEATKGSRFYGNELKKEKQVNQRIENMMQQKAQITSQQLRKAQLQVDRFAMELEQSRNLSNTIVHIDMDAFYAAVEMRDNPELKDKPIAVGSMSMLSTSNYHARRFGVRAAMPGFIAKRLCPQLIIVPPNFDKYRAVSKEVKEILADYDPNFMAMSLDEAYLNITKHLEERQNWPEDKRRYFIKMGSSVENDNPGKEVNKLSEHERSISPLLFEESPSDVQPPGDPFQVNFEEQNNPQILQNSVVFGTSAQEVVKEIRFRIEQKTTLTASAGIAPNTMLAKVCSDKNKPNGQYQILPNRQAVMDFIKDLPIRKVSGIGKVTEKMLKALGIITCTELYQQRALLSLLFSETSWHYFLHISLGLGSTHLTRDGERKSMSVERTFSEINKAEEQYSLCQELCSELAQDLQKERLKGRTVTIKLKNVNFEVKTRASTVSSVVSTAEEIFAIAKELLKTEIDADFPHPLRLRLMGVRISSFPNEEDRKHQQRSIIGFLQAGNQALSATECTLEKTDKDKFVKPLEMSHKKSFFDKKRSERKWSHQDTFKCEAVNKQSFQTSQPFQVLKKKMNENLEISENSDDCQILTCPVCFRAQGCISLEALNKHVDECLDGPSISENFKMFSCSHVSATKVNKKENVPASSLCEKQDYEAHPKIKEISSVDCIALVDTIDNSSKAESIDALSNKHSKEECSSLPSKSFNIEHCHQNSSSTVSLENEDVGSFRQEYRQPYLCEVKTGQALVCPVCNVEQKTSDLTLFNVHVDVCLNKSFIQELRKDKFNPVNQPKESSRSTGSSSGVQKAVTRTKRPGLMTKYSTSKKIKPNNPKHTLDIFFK
Outline: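 Kinetic fluorescence readout at 0 and 10 min followed reaction start with substrate at 50 nM final. Beforehand, enzyme (10 nM Pol kappa) stood 15 min with compound at room temperature; buffer-only wells were negative controls.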
% is scaled to controls: 0 for no effect and ±100 for the full control effect; potency is read from the fitted curve at half-maximal effect; tags tell the direction and shape of the fitted curve.

| Structure (SMILES) | Potency | activity, negative = inhibition |
| --- | --- | --- |
| N#CC1(NC(=O)COC(=O)/C=C/c2ccc3ccccc3n2)CCCCC1 | inconclusive: 100 µM [inhibitor, single point] |  |
| CCN(CC)Cc1c(C(=O)N/N=C(\C)c2ccncc2)nnn1-c1nonc1N | inactive |  |
| O=c1[nH]n2c(=O)c3c([nH]c2c1N=Nc1cccc(C(F)(F)F)c1)CCCC3 | inactive |  |
| COc1ccc(C(=O)c2sc3nc(-c4ccccc4)ccc3c2N)cc1OC | inconclusive: 50.1 µM [inhibitor, partial curve, poor fit] |  |
| CC(C)c1ccc2c(c1)c(SC(C)(C)C)c(CC(C)(C)C(=O)O)n2Cc1ccc(Cl)cc1 | active: 29.9 µM and active: 79.4 µM |  |
| COc1ccc(CNC(=O)c2cc3cccc4c3n2CC(C)S4)cc1OC (stereo not drawn) | inactive |  |
| N#C/C=C1/NC(=O)c2ccccc2S1 | inconclusive: 89.1 µM [inhibitor, single point] |  |
| CN(Cc1ccco1)c1ncnc2ccc(-c3ccccc3C(F)(F)F)cc12 | inconclusive: 22.4 µM [inhibitor, partial curve, poor fit] |  |
| Cc1cccc(C)c1NC(=O)CCCn1c(=O)c2cccn2c2ccccc21 | inactive |  |
| Cc1c([N+](=O)[O-])cnc(Sc2ccccc2)c1[N+](=O)[O-] | inconclusive: 89.1 µM [inhibitor, partial curve, poor fit] |  |
| Cc1cc(C)c2cc(C)c(SCC(=O)NCc3ccco3)nc2c1 | inactive |  |
| O=[N+]([O-])c1cc(-c2ccc(/C=N\n3cnnc3)o2)cc([N+](=O)[O-])c1 | inconclusive: 89.1 µM [inhibitor, single point] |  |
| CCOC(=O)C1=C(SCC)c2cc3c(n2C1=O)CCCC3 | inactive |  |
| Cc1cc(C)c2oc(-c3ccc(C)c(NC(=S)NC(=O)/C=C/c4ccco4)c3)nc2c1 | inactive |  |
| COC(=O)CC1C2(C)CC34OC5(C)O[C@@]6(C7/C(=C(/OC)C(C)C)C(=O)OC(c8ccoc8)[C@@]7(C)C(OC(=O)C(C)C)C(OC)[C@]6(O5)[C@@]13C)C(OC)[C@]4(OC)C2OC(C)=O (stereo partly drawn) | inconclusive: 17.8 µM [inhibitor, partial curve] |  |
| COc1ccc2c3c(cccc13)C(=O)CC2 | inactive |  |
| CSc1ccc(/C=N/Nc2nc(C)cc(=O)[nH]2)cc1 | inactive |  |
| CCN1CCN(Cc2ccc(NC(=O)c3ccc(C)c(NC(=O)c4nccn4C)c3)cc2C(F)(F)F)CC1 | inactive |  |
| N#C/C(=C\c1ccc(O)c(O)c1)S(=O)(=O)c1ccccc1 | inconclusive: 89.1 µM [inhibitor, partial curve, poor fit] |  |
| COCC(=O)N1CCC2(CCN(Cc3ccccc3)CC2)CC1 | inactive |  |
| Cc1ccc(NC(=O)CSc2nc(-c3ccco3)nc3cc(=O)[nH]n23)c(Cl)c1 | inconclusive: 89.1 µM [inhibitor, single point] |  |
| O=C(NCCc1ccccc1)c1ccc2nc(-c3ccco3)c(-c3ccco3)nc2c1 | inconclusive: 89.1 µM [inhibitor, single point] |  |
| O=C(/C=C/c1ccc(Cl)c([N+](=O)[O-])c1)Nc1cccnc1 | inconclusive: 79.4 µM [inhibitor, partial curve, poor fit] |  |

| Structure (SMILES) | Potency | activity, negative = inhibition |
| --- | --- | --- |
| Cc1c(CNCCCc2ccccc2)c(C(=O)O)c(C)n1Cc1ccc(Cl)cc1 | inactive |  |
| OCCCNc1c2ccccc2nc2ccccc12 | active: 79.4 µM |  |
| O=C(COC(=O)CSc1cccc2cccc(Cl)c12)Nc1ncc(C(F)(F)F)cc1Cl | inconclusive: 89.1 µM [inhibitor, partial curve, poor fit] |  |
| CCc1nc2ccc(C(=O)N(CC)CC(=O)Nc3c(F)cccc3F)cc2nc1CC | inactive |  |
| Cc1cc(C)n2c(SC/C(O)=C(\C#N)c3nc4ccccc4[nH]3)nnc2n1 | active: 44.7 µM |  |
| Cn1nc(-c2ccc(Cl)cc2)c2cc(C(=O)NCCCN3CCCC3)sc21 | inactive |  |
| CCOc1cccc(-c2c(C(=O)N/N=C/c3cccs3)nnn2-c2nonc2N)c1 | inconclusive: 89.1 µM [inhibitor, single point] |  |
| CC(C)(C)c1ccc(C(O)CCCN2CCC(C(O)(c3ccccc3)c3ccccc3)CC2)cc1 (stereo not drawn) | inconclusive: 21.2 µM [inhibitor, partial curve, poor fit] |  |
| Cc1cc(=O)oc2c(O)c(O)ccc12 | inconclusive: 3.16 µM [inhibitor, partial curve, poor fit] |  |
| CCN(CCCCOC(=O)c1ccc(OC)c(OC)c1)[C@@H](C)Cc1ccc(OC)cc1 |  | inactive: -8.53% [at 12 µM] |
| CC(C)CC(=O)NC(NC(=S)Nc1sc2c(c1C#N)CCCC2)C(Cl)(Cl)Cl (stereo not drawn) | inconclusive: 79.4 µM [inhibitor, partial curve, poor fit] |  |
| COc1cc(/C=C2\SC(=O)N(c3ccc(Cl)cc3)C2=O)cc([N+](=O)[O-])c1O | inconclusive: 14.1 µM [inhibitor, full curve, poor fit] |  |
| O=C(OCc1cc(=O)n2c(n1)sc1ccccc12)c1cccc(O)c1 | active: 50.1 µM |  |
| Cc1cccc(NC(=O)CN2C(=O)S/C(=C\c3ccc(-c4cccc(C(=O)O)c4C)o3)C2=O)c1 | inactive |  |
| Cc1ccc(O)c(-c2ccnc3cc(-c4ccc(Cl)cc4)nn23)c1 | inconclusive: 89.1 µM [inhibitor, single point] |  |
| Cc1nc(-c2ccc(Cl)cc2)sc1CCNC(=O)c1ccco1 | inactive |  |
| O=C(/C=C/c1ccc2c(c1)S(=O)(=O)N(Cc1ccccc1)[C@H]2CC(=O)N1CCOCC1)N1CCOCC1 | inconclusive: 89.1 µM [inhibitor, single point] |  |
| O=c1c(-c2cc(O)c(O)c(O)c2)coc2cc(O)c(O)c(O)c12 | active: 0.398 µM |  |
| O=C(CSc1n[nH]c(-c2cccnc2)n1)OC1CCCCC1 | inactive |  |
| Oc1ccc(/C=N/NC(=S)Nc2cccnc2)cc1O | inconclusive: 28.2 µM [inhibitor, single point] |  |
| O=C1CCC/C(=N/NC(=O)c2cc(NS(=O)(=O)c3cccs3)cc(NS(=O)(=O)c3cccs3)c2)C1 | inconclusive: 79.4 µM [inhibitor, partial curve, poor fit] |  |
| Cc1occc1-c1nnc(SCC(=O)NCc2ccco2)n1CC(C)C | inconclusive: 89.1 µM [inhibitor, single point] |  |
| C[C@@H]1Cc2c(O)c(O)cc(O)c2C(=O)O1 | active: 79.4 µM |  |

| Structure (SMILES) | Potency | activity, negative = inhibition |
| --- | --- | --- |
| COc1ccccc1NC(=O)N1CC(=O)Nc2sc3c(c2C1c1ccccc1)CCCC3 (stereo not drawn) | inconclusive: 100 µM [inhibitor, partial curve, poor fit] |  |
| CCN(CC)S(=O)(=O)c1ccc(NC(=O)c2ccc(CN3CCOCC3)cc2)cc1 | inactive |  |
| COc1cc(OC)cc(C(=O)Nc2cc3nn(-c4ccccc4)nc3cc2Cl)c1 | inconclusive: 89.1 µM [inhibitor, single point] |  |
| COc1cc(CNC(=O)c2cc(-c3ccccc3)n[nH]2)cc(OC)c1OC | inactive |  |
| CC(=O)c1cccc(NC(=O)CCc2nc3sc4c(c3c(=O)[nH]2)CCCC4)c1 | inconclusive: 89.1 µM [inhibitor, single point] |  |
| Cc1cc(/C=C2/C(=N)N3C(=NC2=O)SN=C3S(C)(=O)=O)c(C)n1-c1ccc(F)cc1 | inconclusive: 39.8 µM [inhibitor, single point] |  |
| O=C(Nc1nnc(SCc2c(Cl)cccc2Cl)s1)C1CC(=O)N(c2ccc3c(c2)OCCO3)C1 (stereo not drawn) | inconclusive: 89.1 µM [inhibitor, single point] |  |
| C=CCn1c(=S)[nH]c2scc(-c3ccco3)c2c1=O | active: 22.4 µM |  |
| Cc1ccc(S(=O)(=O)N2[C@@H](c3ccc(C(C)(C)C)cc3)C(C(=O)O)=CC[C@H]2c2ccc(C(C)C)cc2)cc1 | inconclusive: 79.4 µM [inhibitor, partial curve] |  |
| CCc1nc2sc3ccccc3c(=O)c2c(=O)n1Cc1ccco1 | active: 50.1 µM |  |
| COc1cccc(CN(C)CC(=O)NC(=O)NCc2ccco2)c1 | inconclusive: 89.1 µM [inhibitor, single point] |  |
| CCS(=O)(=O)N1CCc2cc(C(=O)N3CCN(c4cccc(C(F)(F)F)c4)CC3)ccc21 | inactive |  |
| CC(=O)c1cc2ccccc2c2ccccc12 | inactive |  |
| CN(C)CCNC(=O)C(=O)Nc1cc2c3c(c1)CCN3C(=O)CC2 | inconclusive: 89.1 µM [inhibitor, single point] |  |
| COc1cc(C(CC(=O)N2CCCC2)c2c(OC)cc(OC)c3c(-c4ccccc4)cc(=O)oc23)cc(OC)c1OC (stereo not drawn) | inconclusive: 89.1 µM [inhibitor, single point] and inconclusive: 56.2 µM [inhibitor, partial curve, poor fit] |  |
| COc1cc(OC)c(OC)cc1/C=C1\C=Cc2ccccc21 | inactive |  |
| Cn1c2ccccc2c2cc(/C=N/NC(=O)c3ccc(N)cc3)ccc21 | inconclusive: 89.1 µM [inhibitor, partial curve] |  |
| COc1ccc(C2=CC3=C(Br)C(=O)C(C)(OC(=O)c4ccco4)C(=O)C3=CO2)cc1 (stereo not drawn) | active: 79.4 µM |  |
| CN(C)c1ccc(/C=C/c2ccnc3c(O)ccc(O)c23)cc1 | inactive |  |
| CN(c1ccc(OCC(=O)Nc2ccc3[nH]c(=O)[nH]c3c2)cc1)S(=O)(=O)c1ccc(Cl)cc1 | inconclusive: 89.1 µM [inhibitor, partial curve, poor fit] |  |
| Cc1cc(-c2ccco2)c(C#N)c2nc3ccccc3n12 | inconclusive: 89.1 µM [inhibitor, partial curve] |  |
| C=C1C=C(C)n2ncc(C(=O)Nc3cccc4cnccc34)c2N1 | inconclusive: 79.4 µM [inhibitor, partial curve, poor fit] |  |
